Laboratory results: PMC4336329 (PLoS ONE, 2015)
In all, about 310,000 compounds went through this assay and about 2,200 (0.71%) showed an effect of 50% or more. The effect is printed as a negative number. The list shows a part of the results.

Biological target: human ether-à-go-go-related gene (hERG) potassium channel (human, UniProt Q12809)
Assay: primary screen, population patch clamp on CHO cells stably expressing hERG

Chain of human ether-à-go-go-related gene (hERG) potassium channel (Q12809 whole entry, looked up): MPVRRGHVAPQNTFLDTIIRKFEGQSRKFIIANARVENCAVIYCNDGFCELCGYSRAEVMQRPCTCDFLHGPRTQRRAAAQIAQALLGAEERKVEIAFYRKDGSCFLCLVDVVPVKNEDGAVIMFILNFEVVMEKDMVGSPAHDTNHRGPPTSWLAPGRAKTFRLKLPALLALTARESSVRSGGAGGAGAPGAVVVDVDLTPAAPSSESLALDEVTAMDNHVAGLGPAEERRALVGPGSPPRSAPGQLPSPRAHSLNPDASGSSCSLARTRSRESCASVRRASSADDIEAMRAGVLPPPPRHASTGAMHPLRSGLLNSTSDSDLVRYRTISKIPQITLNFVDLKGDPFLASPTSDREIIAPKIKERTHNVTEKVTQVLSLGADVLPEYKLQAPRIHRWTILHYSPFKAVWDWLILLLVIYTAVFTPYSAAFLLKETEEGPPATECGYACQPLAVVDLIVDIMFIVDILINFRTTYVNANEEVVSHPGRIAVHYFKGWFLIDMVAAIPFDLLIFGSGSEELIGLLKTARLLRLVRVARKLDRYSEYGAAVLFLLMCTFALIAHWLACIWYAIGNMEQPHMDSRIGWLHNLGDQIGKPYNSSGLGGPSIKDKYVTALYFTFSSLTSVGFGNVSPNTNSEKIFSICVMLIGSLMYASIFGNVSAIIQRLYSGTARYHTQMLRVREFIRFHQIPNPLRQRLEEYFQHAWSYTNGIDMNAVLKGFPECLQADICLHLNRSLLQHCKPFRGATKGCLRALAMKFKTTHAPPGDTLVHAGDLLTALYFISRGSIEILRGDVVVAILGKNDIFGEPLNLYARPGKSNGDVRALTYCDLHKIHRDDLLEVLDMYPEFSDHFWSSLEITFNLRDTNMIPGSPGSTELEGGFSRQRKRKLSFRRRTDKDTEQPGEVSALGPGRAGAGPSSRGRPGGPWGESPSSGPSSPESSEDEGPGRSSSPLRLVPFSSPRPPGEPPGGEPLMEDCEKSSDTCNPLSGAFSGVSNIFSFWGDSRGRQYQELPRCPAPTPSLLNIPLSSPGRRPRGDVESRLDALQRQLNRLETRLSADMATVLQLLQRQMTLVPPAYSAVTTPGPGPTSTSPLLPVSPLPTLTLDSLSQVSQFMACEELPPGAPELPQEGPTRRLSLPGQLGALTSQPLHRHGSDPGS

Compound	hERG current change (%, negative = inhibition) at 1uM [%]
Cc1ccc2c(c1)cc1c(=O)n(CC(=O)NCc3ccccn3)nc(C)n12	-3.89
Cc1ccc(S(=O)(=O)N2CCC(C(=O)OCC(=O)N3CCCCC3C)CC2)cc1C (stereo not drawn)	11
CCC(C)c1ccc(N(CC(=O)NC(C)(C)C)C(=O)CNC(=O)c2cccs2)cc1 (stereo not drawn)	14.6
COc1cc(Cl)ccc1OCc1cc(C(=O)N[C@H]2CCCCNC2=O)no1	10.7
CC(C)N(Cc1ccccc1)S(=O)(=O)c1ccc2c(c1)NC(=O)CO2	10.4
O=C(c1cn(-c2ccccc2)nc1-c1ccccc1)n1nnc2ccccc21	14.5
CC(/C=C1\SC(=S)N(NS(=O)(=O)c2ccccc2)C1=O)=C\c1ccccc1	4.21
COc1ccccc1C(CNC(=O)C1CC(=O)N(Cc2ccccc2)C1)N1CCCC1 (stereo not drawn)	6.96
S=c1[nH]nc(-c2cccnc2)n1/N=C/C(Cl)=C\c1ccccc1	6.7
CCN(CC)c1ccc(S(=O)(=O)N2CCOCC2)cc1NC(=O)COC(=O)c1ccco1	-5.71
COC(=O)C1CCN(C(=O)COC(=O)c2cc([N+](=O)[O-])ccc2N2CCOCC2)CC1	2.09
O=S(=O)(c1ccc(F)cc1)N1CCN(c2ccc(F)cc2)CC1	6.83
CC(C)CNC(=O)c1ccccc1NC(=O)CN(c1ccc2c(c1)OCCO2)S(C)(=O)=O	11.9
Cc1c(O)c(=O)ccn1Cc1ccccc1	15.1
CN(C)/C=C(\C#N)C(N)=C(C#N)C#N	12.2
O=C(NCc1ccco1)C1CCCN1C(=O)Nc1ccccc1[N+](=O)[O-] (stereo not drawn)	13.4
Cc1cc(C)c(C#N)c(OCC(=O)Nc2ccccc2)n1	14.5
Cc1ccc(C)c(C(=O)CSc2nc(C)cc(=O)[nH]2)c1	16.1
Cc1cc(C)n2cc(CSc3nnnn3C)nc2n1	4.86
CCOC(=O)N1CCC(NS(=O)(=O)c2cc(C(=O)OC)n(C)c2)CC1	11.6
COc1ccc(NC(=O)c2sc(-c3ccccc3)nc2C)c(OC)c1	11.1
Brc1ccccc1OCCOc1cccc2cccnc12	13.1
COc1ccc(C(C)=O)cc1CC(=O)Nc1ccc2c(c1)CCC2	9.4

Compound	hERG current change (%, negative = inhibition) at 1uM [%]
CCCSc1ccc([C@@H]2[C@H]3C(=O)N(CC)C(=O)[C@H]3[C@]3(C(=O)OC)CCCN23)cc1OC.O=C(O)C(F)(F)F	1.95
Cc1nc(CC(=O)N2CCN(S(=O)(=O)c3ccccc3C#N)CC2)cs1	13.3
COc1ccc2[nH]c(=O)c(CN(C)C(=O)c3ccncc3)cc2c1	2.86
Cc1c(OCC(=O)NCCN2CCOCC2)ccc2c1oc(=O)c1ccccc12	-11
CCCCOC(=O)c1ccc(NC(=O)COC(=O)CSc2nc(C)cc(C)n2)cc1	7.95
COc1ccc2[nH]c(=O)c(CN(Cc3ccccc3OC)Cc3nnnn3CC3CCCO3)cc2c1 (stereo not drawn)	7.78
CCc1ccc(OCCCC(=O)Nc2cccc(C(=O)O)c2)cc1	10
CCCOc1ccc(-c2nnn(CC(=O)N3CCCCC3)n2)cc1	13.5
CCOC(=O)[C@H]1[C@H]2COc3ccccc3[C@@H]2N2C(=O)c3ccc(C)cc3NC(=O)[C@@]12C	12.3
CC(=O)Nc1ccc(NC(=O)CCCSc2nc3ccccc3s2)cc1	0.605
COc1cccc(/C=N/NC(=O)C[n+]2ccccc2)c1OC.[Cl-]	2.16
O=C(CCl)c1ccc2[nH]c(=O)oc2c1	12.1
Cn1c(=O)c2c(SCC(=O)N3CCOCC3)nc(C3CC3)nc2n(C)c1=O	4.44
CC(=O)NC1=NN(C(C)=O)C2(S1)C(=O)N(CC(C)C)c1ccc(C)cc12 (stereo not drawn)	11.6
O=C(c1ccc2c(=O)n3c(nc2c1)CCCCC3)N1CCN(c2ccc([N+](=O)[O-])cc2)CC1	-31.4
Cc1ccc(NC(=O)CN2CCCC2)c2c1CC(C)(C)O2	19.6
Cc1sc(NC(=O)c2ccco2)c(CN2CCCCC2)c1C	-9.1
CC(CC(=O)Nc1cccnc1)c1ccccc1 (stereo not drawn)	25.3
Cc1ccsc1C(=O)OCC(=O)N1CC(=O)Nc2ccccc21	11
CCN(CC(=O)Nc1c(F)cccc1F)C(=O)Cc1c(C)nc2ccccc2c1C	-9.21
O=C(NCCCCc1ccccc1)c1ccc(Br)cc1	12.9
Cc1ccccc1NS(=O)(=O)c1cc(C(=O)Nc2cccc(N(C)S(C)(=O)=O)c2)ccc1C	11.4
